The results in this text go back to the RNAGym collection of RNA variant scans (doi:10.1093/nar/gkz1192).

First the molecules themselves.
B1: CPEB3 Ribozyme (parent)
chain: UAACAGGGGGCCACAGCAGAAGCGUUCACGUCGCAGCCCCUGUCAGAUUCUGGUGAAUCUGCGAAUUCUGCUGUAUAUCUC

Read counts are not given, so values of variants with three or more changes are uncertain.

Variants of B1 are the subject of this data set. Kind of data set: self-cleavage, relative activity (ratio to wild type); higher = more cleavage; in vitro, sequencing. The method in brief:
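For each CPEB3 ribozyme variant, relative activity is its cleaved/total read fraction divided by the unmutated ribozyme's. Barcoded error-prone PCR libraries were transcribed by T7 RNA polymerase (5 hours, 37°C) and held in DNase I for 15 min before an EDTA stop, with cleavage occurring throughout. Template-switching reverse transcription and Illumina sequencing were used to read the RNAs. A 5-read minimum applied, and results are the mean of three batches.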
As to UGACAGGGGGCCACAGCAGAAGCGUUCACGUCGCAGCCCCUGUCAGAUUCUGGUGAAUCGGCGAAUUCUGCUGUAUGUCUC, the self-cleavage was 0.17.
For UGACAGGGGGCCACAGCAGAAGCGUUCACGUCGCAGCCCCUGCCAGAUUCUGGUGAAUCUGCGAAUUCUGCUGUAUAUCCC, the self-cleavage came out at 0.62.
The same measure for UUACAGGGGGCCACAGCAGAAGCGUUCACGUCGCGGCCCCUGUCAGAUUCUGGUGAAUCUGCGAAUCCUGCUGUAUAUCUC: 0.58.
For UUACAGGGGGCCACGGCAGAAGCGUUCACGUCGCAGCCCCUGCCAGAUCCAGGUGAAUCUGCCAAUUCUGCUGUAUAUCUC the value was 0.13; for UUAGAGGGGGCCACAGCGGAAGCGUUCACGUCGCAGCCCCUGCCAGAUUCCGGUGAAUCAGCGAAUUCUGCUGUAUACCUC, 0.08; for UUACAGGGGGCCUCAGCAGUAGCGUUCACGUCUCAGCCCCUGUCAGACCCUGGUGAAUCUGCGAGUUCUGCUGUAUAUCUC, 0.08.
Regarding UGACAGGGGGCCACAGCAGAAGCGUUCACGUCGCAGCCCCUGUCAGAUUCCGGUGAAUCUGCGAAUUCUGCCGUAUAUCUC, the self-cleavage was 0.5.
The same measure for UGACAGGGGGCCACAGCAGAAGCGUUCACGUCGCAGCCCCGGUCAGAUUCUGGUGAAUCUGCGAGUUCUGCUGUAUAUCUC: 0.34; for UUACAGGGGGCCACAGCAGUAGCGUUCACGUCGCAGCCCCUGUCAGAUUCUGGUGAAUCUGCGAAUUCUGCCGUAUAUCUC: 0.36.
For UUACAGGGGGCCACGGCUGAGGCGUUCACGUCGCAGCCCCUGUCAGAUUCUGGCGAUUCUGCGAAUUCCGCUGUAUAUCUC the value was 0.07; for UUACAGGGGGCCACAGCGGAAGCGUCCACGUCGCAGCCCCUGUCAGAUUCUGGUGAAUCUGCGAAUUCUGCUGUAUAUCUC, 0.07; for UUACAGGGGGCCACAGCUGAAGCGUUCACGUCGCAGCCCCUGUCAGGUUCUGGCGAACCUGCGAAUUCUGAUGUAUAUCUC, 0.
Turning to UUACGGGGGGCCACGGCAGAAGCGUUUACGUCCCAGCCCCUGCCAGAUUCUGGUGAAUCUGCGAAUUCUGCUGUACAUCUC, the self-cleavage is 0.25.
On to UUACAGGGGGCCACAGCAGAGGCGUUCACGUCGCAGCCCCUGUCGGAUUCUGGUGAAUCUGCGAUUUCUGCUGUAUAUCUC, for which the self-cleavage worked out at 0.25.
For UUACAGGGGGCCACAGCGGAAGCGCUCACGUCGCUGCCCCGGUCAGAUUCUGGUGAAUCUGCGUAUUCUGCUGUAAAUCUC, the self-cleavage amounted to 0.05.
On to UGACAGGGGGCCACAGCAGAAGCGUUCACGCCGCAGCCCCUGUCAGAUUCUGGAGAAUCUGCGAGUUCUGCCGUAUAUCUC, for which the self-cleavage was 0.16.
For UUACAGGGGGCCACAGCAGAAGCGUUCACGUCGCAGCCCCUGUCAGGUUCUGGUGAAUCAGCGAAUCCUGAUGUAUAUCUC the value was 0.1; for UGACAGGGGGCCACAGCAGAAGCGUCCACGUCGCAGCCCCUGUCAGAUUCUGGUGAAUCUGCGAAUUCCGCUGUACUUCUC, 0.34; for UUACGGGGGGCCACAGCAGGAGCGUUCACGUCGCAGCCCCUGUCAGAUUCUGGUGAAUCUGCGGAUUCUGCUGUAUAUCUC, 0.18.
Regarding UUACAGGGGGCCACAGCAGAGGCGUGCACGACGCUGCCCCUGUCAGAUUCUGGUGUAUCUGCGAAUUCUGCUGUAUAUCUC, the self-cleavage is 0.05.
UUACAGGGGGCCACGGCAGAAGCGUUCACGUCGCAGCCCCCGUCAGAUUCUGGUGAAUCUGCGAAUUCUGCUGUAUAUCUC: the self-cleavage was 0.84.
On to UGACAGGGGGCCACAGCAGAAGCGUUCACGUCGCAGCCCCUGUCAGAUUCUGGCGAAUCUGCGAAUUAAGCUGUAUAUCUC, for which the self-cleavage was found to be 0.13.
In the case of UGACAGGGGGCCACAGCAGAAGCGUUCACGUCGCAGCCCCGGUCAGAUUCUGGUGAAUCUGCGAAUUCUGCCGUAUAUCUC, the self-cleavage turned out to be 0.28.
For the variant UUGCAGGGGGCCACAGCAGAAGCGUUCUCGUCGCAGCCCCGGUCAGAUUCUGGCGAAUCUGCGAAUUCAGCUGUAUAUCUC, the self-cleavage was 0.25.
As for UUACAGGGGGCCACAGCAGAAGCGUUCACGUCGCAGCCCCUGUCAGAUUCUGGUGGAUCUGCGAAUUCAGCUGUAUAUCUC, the self-cleavage came out at 0.28.
In the case of UUACAGGGGGCCACGGCAGAAGCGUUCACGUCGCAGCCCCUGUCAAAUUCUGGCGAAUCUGCGAAUUCUGCUGUAUAUCUC, the self-cleavage turned out to be 0.35.
For the variant UUACAGGGGGCCACAGCAGGGGCGUUCACGCCGCAGCCCCAGUCAGAUUCUGGUGAAUCUGCGAAUUCUGCUGUAUAUCUC, the self-cleavage is 0.37.
As for UUCCAGGGGGCCACAGCAGAAGCGUUCACGUCGCAGCCCCUGACAGAUUCUGGUGAAUCUGCGAAUUCUGCCGUAUAUCUC, the self-cleavage is 1.11.
For UUACAGGGGGCCACAGCAGAGGCGUUCGCGUCACAGCCCCUGCCAGAUUCUGGUGAAUCUGCGAAUUCUGCUGUAUAUCUC the value was 0.22; for UGACAGGGGGCCACAGCAGAAGCGUUCACGUCGCAGCCCCUGCCAGAUUCUGGUGAAUCUGCGAAUUCUGCUGCAUAUCUC, 0.71.
As to UUACAGGGGGCCACAGCUGAAGCGUUCACGUCGCAGCCCCUGCCAGAUUCAGGUGAAUCUGCGAAUUCUGCUGUAUAUCUC, the self-cleavage was found to be 0.06.
For UUACAGGGGGCCACAGCAGAAGCGUUCACGUCGCAGCCCCUGUCAGAUUCUGGUGAAUCUGCGAGUCAUGCUGUAUUUCUC the value was 0.22.
Consider UUACAGGGGGCCACUGCAGAAGCGUUCACGUCGCAGCCCCUGUCAGAUUCUGGUGAAUCUGCGAUAACUGCCGUAUAUCUC, for which the self-cleavage came to 0.15.
With UGACAGGGGGCCACAGCAGAAGCGUUCACGUCGCAGCCCCUGUCAGAUCCUGGUGAUUCUGCGAAUUCUGCUGUAUAUCUC, the self-cleavage turned out to be 0.89.
